Assay results published in article PMC4336329 (PLoS ONE, 2015).
The campaign covered roughly 310,000 compounds. About 2,200 (0.71%) showed an effect of 50% or more. The effect is printed as a negative number. This is one part of the list.

target: human ether-à-go-go-related gene (hERG) potassium channel (human, UniProt Q12809); test: primary screen, population patch clamp on CHO cells stably expressing hERG
Sequence (Q12809 whole entry, looked up): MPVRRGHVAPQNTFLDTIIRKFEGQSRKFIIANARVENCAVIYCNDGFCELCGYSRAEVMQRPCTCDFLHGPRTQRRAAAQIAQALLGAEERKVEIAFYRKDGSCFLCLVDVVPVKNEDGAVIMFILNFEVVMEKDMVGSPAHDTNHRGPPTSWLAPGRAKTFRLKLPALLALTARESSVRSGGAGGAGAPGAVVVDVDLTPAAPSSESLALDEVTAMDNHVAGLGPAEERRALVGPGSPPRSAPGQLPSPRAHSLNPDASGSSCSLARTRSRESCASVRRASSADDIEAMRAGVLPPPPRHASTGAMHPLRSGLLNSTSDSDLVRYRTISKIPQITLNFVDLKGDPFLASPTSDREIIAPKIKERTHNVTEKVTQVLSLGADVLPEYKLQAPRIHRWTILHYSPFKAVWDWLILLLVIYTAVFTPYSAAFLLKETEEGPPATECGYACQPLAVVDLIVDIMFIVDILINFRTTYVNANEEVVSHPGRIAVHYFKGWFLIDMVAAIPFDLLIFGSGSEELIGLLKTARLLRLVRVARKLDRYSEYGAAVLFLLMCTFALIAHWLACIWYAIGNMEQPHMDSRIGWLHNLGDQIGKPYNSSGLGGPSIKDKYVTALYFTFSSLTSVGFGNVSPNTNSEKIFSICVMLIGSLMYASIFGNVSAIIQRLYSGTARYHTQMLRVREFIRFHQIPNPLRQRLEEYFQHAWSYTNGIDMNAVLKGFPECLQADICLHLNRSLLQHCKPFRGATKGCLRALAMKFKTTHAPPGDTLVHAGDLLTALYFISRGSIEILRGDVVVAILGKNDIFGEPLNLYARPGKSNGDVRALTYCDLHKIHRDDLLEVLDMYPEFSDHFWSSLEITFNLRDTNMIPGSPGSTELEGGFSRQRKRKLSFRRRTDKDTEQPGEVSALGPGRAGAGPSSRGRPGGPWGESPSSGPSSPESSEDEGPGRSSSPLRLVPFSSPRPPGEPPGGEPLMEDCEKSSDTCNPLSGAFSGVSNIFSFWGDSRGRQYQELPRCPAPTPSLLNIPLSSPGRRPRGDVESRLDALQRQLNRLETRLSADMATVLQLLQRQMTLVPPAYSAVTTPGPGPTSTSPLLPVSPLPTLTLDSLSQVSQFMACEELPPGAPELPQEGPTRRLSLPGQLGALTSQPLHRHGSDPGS

Compared with `CC1=NN(Cc2ccccc2)C(=O)/C1=C\c1ccc(N(C)C)cc1`, `CC(=O)Nc1ccc(S(=O)(=O)Nc2cc(C)cn(Cc3ccccc3)c2=O)cc1` is higher in “hERG current change (%, negative = inhibition) at 1uM” value: 4.66% for the first, 10.5% for the second.

First: Cc1cc(-c2ccc(C)c(S(=O)(=O)NCc3ccc(Br)cc3)c2)on1
Second: Cc1nc(-c2cccc(NS(=O)(=O)c3cccc4ccccc34)c2)cs1
The “hERG current change (%, negative = inhibition) at 1uM” value of the first is lower: -5.83% for the first, 13% for the second.

Compared with `CC(SCC(=O)Nc1ccccc1)c1nc2ccccc2c(=O)[nH]1` (centres unmarked), `O=C1CN(C(=O)CSc2nnc(Nc3ccccc3)s2)c2ccccc2N1` is lower in “hERG current change (%, negative = inhibition) at 1uM” value: 6.91% for the first, 2.18% for the second.

Going from `Cc1ccc(-n2c(SCC(N)=O)nc3c([nH]c4ccccc43)c2=O)cc1` to `O=C(Nc1cccc(F)c1)c1c(O)c2ccccc2[nH]c1=O`, the “hERG current change (%, negative = inhibition) at 1uM” value falls from 14.9% to 13.4%.

Compared with `CCc1cc(=O)oc2c3c(cc(OCC(=O)NCCCC(=O)O)c12)OC(C)(C)CC3`, `CCCCCc1cc(O)c2c3c(c(=O)oc2c1)CN(C)CC3` is lower in “hERG current change (%, negative = inhibition) at 1uM” value: 10.5% for the first, 7.07% for the second.

Going from `O=C(c1cccs1)N1CCN(c2nc3ccccc3s2)CC1` to `Cc1ccc(C)c(S(=O)(=O)N2CCN(C(=O)c3ccncc3)CC2)c1`, the “hERG current change (%, negative = inhibition) at 1uM” value rises from 7.28% to 13.9%.

Compared with `CC(C)NCc1cccc([N+](=O)[O-])c1.O=C(O)C(=O)O`, `CC(NC(=O)c1ccc([N+](=O)[O-])cc1Cl)C1CC2CCC1C2` (centres unmarked) is lower in “hERG current change (%, negative = inhibition) at 1uM” value: 11.8% for the first, 8.63% for the second.

Going from `O=C(CCN1C(=O)c2ccccc2C1=O)NCCCn1ccnc1` to `CCCCCC(=O)Nc1c(-c2ccc(OC)cc2)c(=O)c2ccccc2n1C`, the “hERG current change (%, negative = inhibition) at 1uM” value falls from 11.1% to 8.68%.

Compared with `CCCNC(=O)N1[C@H]2CC[C@@H]1C(C(=O)OC)=C(c1cccc(C#N)c1)C2`, `CC1CCc2c(sc(NC(=O)COC(=O)c3ccc(O)cc3)c2C#N)C1` (centres unmarked) is higher in “hERG current change (%, negative = inhibition) at 1uM” value: -0.51% for the first, 13.3% for the second.

Going from `Cc1cccc(C)c1N1CCN(CCn2c(=S)[nH]c3ccccc3c2=O)CC1` to `O=c1[nH]c(CN2CCN(Cc3ccc4c(c3)OCO4)CC2)nc2ccccc12`, the “hERG current change (%, negative = inhibition) at 1uM” value falls from 19.6% to -28%.

Compared with `Cl.NS(=O)(=O)c1ccc(CCNCc2cc(Cl)ccc2OCc2ccccc2)cc1`, `CC(=O)Nc1ccc(S(=O)(=O)NCC2CCC(C(=O)NCCc3ccccc3)CC2)cc1` (centres unmarked) is higher in “hERG current change (%, negative = inhibition) at 1uM” value: -59.3% for the first, -4.08% for the second.

Going from `CCN(Cc1cc2cc(OC)ccc2[nH]c1=O)C(=O)c1ccncc1` to `COc1ccc2[nH]c3ccccc3c2c1`, the “hERG current change (%, negative = inhibition) at 1uM” value rises from -14.1% to 6.6%.

Going from `Cc1ccc(NC2CCCN(C(=O)c3ccc(-n4ccnc4)cc3)C2)cc1C` (centres unmarked) to `CCOC(=O)C1CCCN(C(=O)c2cc(-c3ccc(F)cc3)nc3ccccc23)C1` (centres unmarked), the “hERG current change (%, negative = inhibition) at 1uM” value rises from -4.71% to 9.67%.

First: C=CCn1c(C2CC2)n[nH]c1=S
Second: C=CCSc1nc(N)cc(=O)[nH]1
The “hERG current change (%, negative = inhibition) at 1uM” value of the first is higher: 1.66% for the first, 1.41% for the second.

Going from `O=S(=O)(NC(=NC1CCCCC1)c1ccccc1)c1ccccc1` to `O=C(OCC(=O)N1CCC(Cc2ccccc2)CC1)c1ccccc1`, the “hERG current change (%, negative = inhibition) at 1uM” value rises from 6.41% to 12.8%.

Compared with `Cc1ccc(S(=O)(=O)c2ccc(Cl)cc2)cc1S(=O)(=O)NC(C(=O)O)C(C)C` (centres unmarked), `CN(C)S(=O)(=O)c1ccc(C(=O)Nc2ccc3c(c2)CCC3)cc1` is lower in “hERG current change (%, negative = inhibition) at 1uM” value: 17.3% for the first, 6.27% for the second.

Compared with `CCc1csc(CCNC(=O)C2CCC(=O)N(CCOC)C2)n1` (centres unmarked), `COCCCNC(=O)C1CCN(S(=O)(=O)c2c(C)noc2/C=C\c2ccc(OC)cc2)CC1` is lower in “hERG current change (%, negative = inhibition) at 1uM” value: 14.5% for the first, -0.111% for the second.

First: CCOc1ccc(/C=N/n2c(SC)nnc2-c2ccccc2)cc1OCC
Second: S=c1[nH]nc(-c2ccncc2)n1/N=C/c1cccc(Cl)c1
The “hERG current change (%, negative = inhibition) at 1uM” value of the first is lower: 7.11% for the first, 8.7% for the second.

First: Cc1cc(-c2c(C(=O)N3CCOCC3)c(C)nn2-c2cccc(C(F)(F)F)c2)no1
Second: CN1CCC(N2CCN(c3cccc(C(F)(F)F)c3)CC2)CC1
The “hERG current change (%, negative = inhibition) at 1uM” value of the first is higher: 5.32% for the first, 4.06% for the second.

First: CCOCCN1CCN(c2c(C)c(C)nc3cc(-c4cc(OC)cc(OC)c4)nn23)CC1
Second: CCOC(=O)C1(Cc2cccc(OC)c2)CCCN(Cc2cc(C(C)C)n[nH]2)C1 (centres unmarked)
The “hERG current change (%, negative = inhibition) at 1uM” value of the first is lower: -29.4% for the first, 2.83% for the second.

First: O=C(NCCCc1ccccc1)c1ccc(-n2cncn2)c([N+](=O)[O-])c1
Second: Cc1cc(NC(=O)CSCc2ccccc2)no1
The “hERG current change (%, negative = inhibition) at 1uM” value of the first is lower: -22.1% for the first, 14.4% for the second.

Going from `CCCCNC(=S)N1CCN(Cc2ccc3c(c2)OCO3)CC1.O=C(O)C(=O)O` to `Cc1cccc(C(=O)NCC(=O)N2CCN(S(=O)(=O)c3ccc4c(c3)OCCO4)CC2)c1`, the “hERG current change (%, negative = inhibition) at 1uM” value rises from 4.66% to 6.49%.

First: COc1cc(OC)cc(-c2c(-c3cccs3)c3cc(-c4ccc(N(C)C)nc4)ccc3n2C)c1
Second: Cc1cc(CN(C)Cc2cn(C)nc2-c2ccc(Oc3ccccc3)cc2)on1
The “hERG current change (%, negative = inhibition) at 1uM” value of the first is higher: 9.24% for the first, 2.33% for the second.

First: O=C(NNC(=O)c1cc(C(F)(F)F)cc(C(F)(F)F)c1)c1ccc(Cl)cc1
Second: CC(=O)Nc1cccc(NC(=O)CCNC(=O)c2ccc(Cl)cc2)c1
The “hERG current change (%, negative = inhibition) at 1uM” value of the first is lower: 7.75% for the first, 12.8% for the second.

Compared with `CCOC(=O)N1C2=NC(C(=O)OC)=C(C(=O)OC)[C@@H]3N(Cc4ccccc4)c4ccccc4[C@]23C[C@H]1C(=O)OC`, `Cc1ccccc1C(=O)NNC(=O)C1CC(=O)N(Cc2ccccc2)C1` (centres unmarked) is lower in “hERG current change (%, negative = inhibition) at 1uM” value: 8.88% for the first, -1.12% for the second.

Going from `C=CCn1c2ccccc2c(=O)c2cc(C#CC[C@@H](C)O)ccc21` to `CC(C)OCCCNc1nc2c(-c3ccccc3)nnn2c2ccccc12`, the “hERG current change (%, negative = inhibition) at 1uM” value rises from 6.55% to 17.7%.

Going from `Cc1ccc(NC(=O)c2cccc(NC(=O)/C=C/c3ccco3)c2)cc1C` to `COc1ccccc1C(=O)NNC(=O)C(=O)Nc1ccc(C)c(Cl)c1`, the “hERG current change (%, negative = inhibition) at 1uM” value falls from 17.2% to 11.5%.

Going from `CCOc1ccc(CC(=O)Nc2ccc(S(=O)(=O)N3CCCC3)cc2)cc1` to `COc1ccc(S(=O)(=O)N2CCCCC2)cc1NC(=O)CCNC(=O)c1ccc(Br)cc1`, the “hERG current change (%, negative = inhibition) at 1uM” value rises from 13.7% to 14%.

Compared with `CC(=O)N1CCC(C(=O)Nc2cc(C)cc(C)c2)CC1`, `COc1cc(OC)cc(C(=O)N2CCC(C(=O)c3ccc(F)cc3)CC2)c1` is lower in “hERG current change (%, negative = inhibition) at 1uM” value: 13.5% for the first, -1.28% for the second.

Going from `O=S(=O)(c1cccs1)N1CCC(CO)(Cc2cccc(F)c2)CC1` to `O=C(c1cccc(S(=O)(=O)N2CCOCC2)c1)N1CCN(C/C=C/c2ccccc2)CC1`, the “hERG current change (%, negative = inhibition) at 1uM” value falls from 5.2% to -11.4%.

`Cc1c(C(=O)NCc2ccccn2)sc2nc(-c3ccccc3)cn12` and `O=C(c1ccccc1)n1nc(-c2ccccc2)nc1NCc1ccco1` are the same in “hERG current change (%, negative = inhibition) at 1uM” value: 10% for the first, 10% for the second.

First: Cc1ccc(S(=O)(=O)N2CCN(C(=O)CSc3ncn[nH]3)CC2)cc1
Second: COCCNC(=O)CN1CCN(S(=O)(=O)c2ccc3c(c2)CCCC3)CC1
The “hERG current change (%, negative = inhibition) at 1uM” value of the first is higher: 9.32% for the first, 6.76% for the second.

Going from `CCN=C1SC(C(=O)Nc2cccc(C(=O)O)c2)CC(=O)N1CC` (centres unmarked) to `CS(=O)(=O)c1ccc(Cl)c(NC(=O)COC(=O)CNC(=O)c2ccccc2)c1`, the “hERG current change (%, negative = inhibition) at 1uM” value falls from 2.81% to 2.22%.

First: CCOC(=O)C(=O)NNc1ccc(Cl)cc1
Second: CCOC(=O)/C(C#N)=C/Nc1ccsc1C(C)=O
The “hERG current change (%, negative = inhibition) at 1uM” value of the first is higher: 10.4% for the first, 8.88% for the second.

First: CC(C)(C)c1csc(NC(=O)CSC2=NCCS2)n1
Second: COc1ccc2cc([C@H](C)C(=O)N(C)Cc3ccccc3N3CCCC3)ccc2c1
The “hERG current change (%, negative = inhibition) at 1uM” value of the first is lower: 4.1% for the first, 12.8% for the second.

Compared with `Cc1ccc(COC(=O)CCN=C2NS(=O)(=O)c3ccccc32)cc1`, `COc1ccc(CCNC(=O)/C(C#N)=C2\N=C(NC(=O)c3cccs3)c3ccccc32)cc1` is higher in “hERG current change (%, negative = inhibition) at 1uM” value: -0.276% for the first, 7.76% for the second.

First: COc1ccc(NC(=O)c2sc3nc(N4CCOCC4)c4c(c3c2N)CCCC4)c(OC)c1
Second: COc1ccc(C2/C(=C(\O)c3ccc4c(c3)OCCO4)C(=O)C(=O)N2Cc2ccco2)c(OC)c1 (centres unmarked)
The “hERG current change (%, negative = inhibition) at 1uM” value of the first is higher: 18.7% for the first, -11.5% for the second.

First: COc1ccc(CN(C)CC(=O)Nc2cc(OC)c([N+](=O)[O-])cc2C)c(OC)c1
Second: COc1cc(C)c(Cl)cc1S(=O)(=O)n1cnc2ccccc21
The “hERG current change (%, negative = inhibition) at 1uM” value of the first is lower: -6.94% for the first, 10.8% for the second.

Compared with `CC(=O)Nc1ccc(NC(=O)CSc2cn(CC(=O)N3CCOCC3)c3ccccc23)cc1`, `O=C(O)c1oc2ccccc2c1CSc1ccccn1` is lower in “hERG current change (%, negative = inhibition) at 1uM” value: 15.8% for the first, 12% for the second.

First: CSc1ncccc1C(=O)Nc1ccc(OC(F)(F)F)cc1
Second: CC1(NC(=S)Nc2ccc3ccccc3c2)CCS(=O)(=O)C1 (centres unmarked)
The “hERG current change (%, negative = inhibition) at 1uM” value of the first is lower: 11.4% for the first, 14.2% for the second.

First: O=[N+]([O-])c1cc(F)c(N2CCCCCC2)cc1N1CCNCC1
Second: CCOc1ccc(-n2c(O)c(C=NCCN3CCNCC3)c(=O)[nH]c2=O)cc1
The “hERG current change (%, negative = inhibition) at 1uM” value of the first is lower: 1.26% for the first, 6.88% for the second.

First: CC(C(=O)N(C)C1CCS(=O)(=O)C1)N1C(=O)/C(=C/c2ccc(F)cc2)SC1=S (centres unmarked)
Second: CCN(CC)C(=O)C1CCN(S(=O)(=O)c2ccc(C3CNC(=O)C3)cc2)CC1 (centres unmarked)
The “hERG current change (%, negative = inhibition) at 1uM” value of the first is lower: -8.7% for the first, 9.06% for the second.

First: Cn1cnc([N+](=O)[O-])c1Sc1ncnc2nc[nH]c12
Second: Cc1noc(C)c1CSCC(=O)OCc1nc2ccccc2c(=O)n1CC#N
The “hERG current change (%, negative = inhibition) at 1uM” value of the first is lower: 6.98% for the first, 8.54% for the second.
